± gives the standard deviation of the averaged measurements. This is one part of the list.
system: PfAP2-I AP2 domain 3 (GST-tagged); assay: gcPBM binding intensity (ln(normalized median fluorescence intensity)); higher = stronger DNA binding
In short: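 GST-fused DNA-binding domains of P. falciparum, expressed in E. coli, were applied at about 25 μg on average for 1 h to an Agilent 4 × 180k array of primer-extended double-stranded 36-bp intergenic genomic probes and negative controls. Binding intensity is the highest Masliner-normalised natural-log median intensity across replicate spots of either probe orientation, measured with Alexa488 anti-GST antibody and a 488 nm scan.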

Row | Sequence | gcPBM binding intensity (ln)
1 | ATTAGTATTAGATGATGTACATTTATATTGAAATAT [XGTACX_site8537] | 7.7 ± 0.4
2 | ATAAAAATACAGTTAACACACATGTGTATTTATATG [CACACA_site7727] | 7.82 ± 0.55
3 | GAAAACGTTTGAAGTTGTACATATGTATAAAAAGAA [XGTACX_site2304] | 8.48 ± 0.28
4 | TGTTATTTAAATAATTCTTTTTAAAAGATGAATTAT [CACACA_negctrl_site1226] | 7.43 ± 0.33
5 | ATGGTCTGTTAAAGATGTACTTTTTAAAAATAAACG [XGTACX_site2583] | 7.99 ± 0.39
6 | ATAATATAACACAAATGTACAAAAAATAAATAAATA [XGTACX_site385] | 7.88 ± 0.64
7 | AACAAACACAGACACACACACACACCCAAATGATTA [CACACA_site2431] | 8.06 ± 0.28
8 | TATATATATACTTAATGTACATATATATATATATAT [XGTACX_site3102] | 9.2 ± 0.44
9 | CATACTCACCAACACACACACACACCCATATAGAAT [CACACA_site592] | 8.19 ± 0.54
10 | CTTTTTGAAATATTAACACACATTTTGTTAATTAAT [CACACA_site4046] | 7.85 ± 0.4
11 | CACAGATAAATTAACACACACACACCCATATATATA [CACACA_site3960] | 8.42 ± 0.67
12 | TATATTAAAGGGGTTTCACACACATGTATAATTAAT [CACACA_site7950] | 7.7 ± 0.65
13 | TATTATTTAATCAAATGTACATAGAAAATGTATGTA [XGTACX_site4433] | 7.62 ± 0.28
14 | ATGTAAAATTAATATTGTACTTTTCCATCATGATAC [XGTACX_site2669] | 7.67 ± 0.6
15 | AATAGGAAAGATTTTGCATGTGATATAAGTAATTTT [TGCATGCA_site657] | 7.68 ± 0.79
16 | CATATAATAAATAGATGTACAGACTATATATATATA [XGTACX_site6575] | 9.21 ± 0.3
17 | TTTATATGATACACACGTACATATACACATATACAC [XGTACX_site8123] | 8.54 ± 0.67
18 | TATATATATATTTTTGCACACATTTTTTAAGGTACA [CACACA_site2145] | 9.64 ± 0.28
19 | TATAATATTTATATAACACACATATAGATTTATTTA [CACACA_site6269] | 7.58 ± 0.3

Row | Sequence | gcPBM binding intensity (ln)
20 | TACGTAGCCACACTAACACACACAAATATGCACAAT [CACACA_site8942] | 9.92 ± 0.26
21 | ATTAAATACATTAACACACACACAAATATGTACATA [CACACA_site7372] | 7.93 ± 0.35
22 | ATATTATATAATATACGTACATATATTATGCATAAA [XGTACX_site7895] | 8.41 ± 0.23
23 | ATAATTTGTGGACACACACACACACCGACATATATA [CACACA_site8718] | 8.35 ± 0.36
24 | TTATTCACTTCTTTTTAAAAAAAAAAAAAAAAAAAA [CACACA_negctrl_site223] | 8.04 ± 0.83
25 | TTGTTAATGGTACGAACACACATATAAAGATGCATA [CACACA_site2044] | 7.68 ± 0.57
26 | ATTTCGAATATTAAGTGTACAATATAAATATATAAA [XGTACX_site6674] | 7.75 ± 0.35
27 | TTATATGAATTTTAGATTTATAATACAAGAATATTC [CACACA_negctrl_site70] | 7.27 ± 0.58
28 | AAAAAAAAAAAAAAAAGTACAAATAAAAAAAAAATA [XGTACX_site4814] | 8.54 ± 0.39
29 | TATTTATAATAGTGTACACAATTATAAACTGAATAT [CACACA_site6041] | 8.12 ± 0.39
30 | TATTATTGTCTTTCAAAAAAAAAAAAAAAAAAAAAA [CACACA_negctrl_site1242] | 8.1 ± 0.79
31 | CAACATATATTAATATGTACATATATATAGATATAT [XGTACX_site4107] | 7.54 ± 0.43
32 | TATTATTCATAATTTATCTTTTAAATTAAATCACAA [GTGCAC_negctrl_site288] | 7.38 ± 0.42
33 | TATGTAAAAAATTTAACACACACATATATATATATA [CACACA_site8829] | 9.47 ± 0.22
34 | TTACTTAAGAAACACACACACAAAAAAAAAAAAAAA [CACACA_site946] | 8.04 ± 0.38
35 | ATCATAATCATAAAAAGTACAAACGATAAAATAAAT [XGTACX_site3832] | 8.01 ± 0.57
36 | TTTTTTTCTGTGAGTGCATGTAATAAAATAAATTTA [TGCATGCA_site276] | 9.21 ± 0.13
37 | TTCAAAAATATATAATGTACACAAATATAAAAGAAT [XGTACX_site1944] | 8.2 ± 0.38
38 | TGTTATTTTAAAAAAAAAATTATTAACTTAAAAAAA [CACACA_negctrl_site1641] | 7.29 ± 0.52

Row | Sequence | gcPBM binding intensity (ln)
39 | AATAATAACACCGTGGATACACAATAACAAAGAACT [CACACA_negctrl_site532] | 8.14 ± 1
40 | AAATATTTTTTTTCTACACACATACAAATATATATT [CACACA_site5325] | 8.05 ± 0.69
41 | TTTCATTTAGCTTTTACACACTATATATCATTGATT [CACACA_site6158] | 7.89 ± 0.68
42 | TGAGAGTTCTCATATGCACACAAAAAACTTTCATTT [CACACA_site7898] | 8.51 ± 0.43
43 | TTGCAACTCTTCAATCGTACACATTATTTATTATAT [XGTACX_site1377] | 7.97 ± 0.35
44 | TACATATACATATACACACACACACCCAAATAAATA [CACACA_site1344] | 8.52 ± 0.54
45 | GAAAAAAAAAAAAAAAAAAAAAGGAAAAAAGTGAAA [CACACA_negctrl_site996] | 7.33 ± 0.68
46 | GAATAAATAGACGAGTGTACTTTTTTTTAAAAAAAA [XGTACX_site7880] | 8.02 ± 0.26
47 | ACGTTTACGTTATTATGTACGTAATATATCATACCT [XGTACX_site5006] | 7.64 ± 0.51
48 | ATAAAACAATAAAATTGTACATAAATTGATTATACT [XGTACX_site6723] | 7.58 ± 0.36
49 | AATTAAATTAGAAGCACACACATATTTATATTTATA [CACACA_site7552] | 7.93 ± 0.41
50 | GTATATATTTAAACACGTACACAAAACCCAAAAAAT [XGTACX_site8110] | 8.51 ± 0.25
51 | ATACACTCACTCACACGTACAGACAACGGACGATCA [XGTACX_site1097] | 8.27 ± 0.33
52 | TTATTATAATCATTAGTGCATATATTATTTTTATAT | 9.795 ± 0.049
53 | TATATACATATATGTACACACATTACAGATGTACAT [CACACA_site966] | 8.21 ± 0.18
54 | AATCTAATATAATGCACACATAAAAAAAAAATCAAA [CACACA_site2714] | 10.7 ± 0.74
55 | TATATTTACAATAAAACGTTATTTTTTGTTATTTTC [CACACA_negctrl_site612] | 7.48 ± 0.48
56 | CATATTTTTAAATACACACACATAAAAAAAAAAAAA [CACACA_site1095] | 8.04 ± 0.36
